Publication PMC4336329 (PLoS ONE, 2015)
Hit rate of the full screen: of about 310,000 compounds, about 2,200 (0.71%) showed an effect of 50% or more. Effects have a minus sign here. The list shows a part of the results.

target: human ether-à-go-go-related gene (hERG) potassium channel (human, UniProt Q12809); assay: primary screen, population patch clamp on CHO cells stably expressing hERG
Sequence (Q12809 whole entry, looked up): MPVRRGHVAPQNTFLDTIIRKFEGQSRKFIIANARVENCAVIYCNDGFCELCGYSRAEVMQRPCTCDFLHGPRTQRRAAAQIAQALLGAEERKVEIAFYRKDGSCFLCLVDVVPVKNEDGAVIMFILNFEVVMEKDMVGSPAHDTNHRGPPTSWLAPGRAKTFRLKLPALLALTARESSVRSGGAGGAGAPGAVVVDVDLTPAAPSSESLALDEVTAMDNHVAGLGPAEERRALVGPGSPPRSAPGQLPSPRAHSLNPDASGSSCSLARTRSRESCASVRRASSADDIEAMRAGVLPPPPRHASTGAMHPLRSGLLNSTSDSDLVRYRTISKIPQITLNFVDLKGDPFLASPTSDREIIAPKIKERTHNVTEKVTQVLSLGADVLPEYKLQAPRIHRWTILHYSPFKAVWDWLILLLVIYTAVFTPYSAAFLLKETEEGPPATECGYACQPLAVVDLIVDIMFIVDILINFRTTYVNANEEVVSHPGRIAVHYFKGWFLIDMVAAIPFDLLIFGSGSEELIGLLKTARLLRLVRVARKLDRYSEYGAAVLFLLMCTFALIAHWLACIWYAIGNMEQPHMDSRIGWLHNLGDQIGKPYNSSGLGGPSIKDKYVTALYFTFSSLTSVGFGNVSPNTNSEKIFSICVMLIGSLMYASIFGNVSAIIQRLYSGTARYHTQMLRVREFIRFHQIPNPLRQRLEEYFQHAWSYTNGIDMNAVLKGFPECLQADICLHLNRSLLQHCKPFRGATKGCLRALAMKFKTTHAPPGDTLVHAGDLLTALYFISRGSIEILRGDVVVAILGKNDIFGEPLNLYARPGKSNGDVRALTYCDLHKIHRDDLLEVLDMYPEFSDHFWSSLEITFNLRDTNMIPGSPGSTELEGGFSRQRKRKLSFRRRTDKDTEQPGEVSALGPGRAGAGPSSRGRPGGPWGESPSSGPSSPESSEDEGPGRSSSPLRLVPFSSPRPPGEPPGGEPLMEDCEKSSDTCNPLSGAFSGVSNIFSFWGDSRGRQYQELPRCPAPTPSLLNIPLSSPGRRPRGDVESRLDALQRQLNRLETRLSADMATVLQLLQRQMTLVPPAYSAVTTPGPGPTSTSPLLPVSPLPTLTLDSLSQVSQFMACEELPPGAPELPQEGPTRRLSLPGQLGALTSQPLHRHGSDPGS

SMILES	hERG current change (%, negative = inhibition) at 1uM
CCc1ccc(N(CC)c2ncnc3nc[nH]c23)cc1	16.1%
COc1ccc2c(c1)c(=O)c(C(=O)c1ccc(Cl)cc1)cn2CC(=O)Nc1ccc(F)cc1	14.8%
O=C1CC(N2CCN(c3ccc(F)cc3)CC2)C(=O)N1Cc1ccccc1 (centres unmarked)	5.56%
O=C(NNC(=O)c1ccncc1)Nc1ccccc1	11.9%
CCCC(=O)NCCCCNC(=O)CCC	4.55%
Cc1ccc(NCc2ccccc2O)c(C)c1	18%
Cc1ccc(OCc2cc(C(=O)NC(C)Cc3cnccn3)no2)cc1C (centres unmarked)	9.87%
Cc1nn(C)c(C)c1Sc1ccc(Br)cc1	16.2%
O=C(CC1C(=O)NCCN1CC1CCCCC1)NCCCN1CCOCC1 (centres unmarked)	12.6%
O=C(O)C(=O)O.OCc1ccccc1OCCCN1CCC(Cc2ccccc2)CC1	-65.9%
COc1ccc(NC(=O)C(c2ccccn2)N(C(C)=O)c2ccc(C)cc2)cc1 (centres unmarked)	8.55%
COc1ccc(-c2[nH]ncc2C=O)cc1OC	2.96%
O=C(Cn1c(NCCCCl)nc2ccccc21)c1ccccc1.[Cl-]	3.88%
CCOC(=O)c1nn(-c2ccccc2C)c2nc(Nc3ccccc3)cc(=O)n12	-4.38%
CN(C)/C=C/C(=O)c1ccccc1F	4.57%
CCCOc1cccc(C(=O)O)c1	7.34%
CCOc1cccc(C(=O)N2CCCCC2c2cccnc2)c1 (centres unmarked)	-3.21%
C/C(N)=C(/C#N)C(=O)COC(=O)c1ccc(C#N)cc1	3.74%
O=C(CCNC(=O)c1ccc(Cl)cc1)NCCC1=CCCCC1	2.47%
CCCC(C)C1(CC)C(=O)NC(=Nc2ccc(OC)cc2)NC1=O (centres unmarked)	3.6%
Cc1cc(OCC(=O)NC2CCCCC2)ccc1Cl	8.91%
O=C(NCc1cccnc1)c1cccc(C(F)(F)F)c1	13.5%
N#C/C(=C/c1ccc2c(c1)OCO2)C(=O)NCCc1c[nH]c2ccccc12	9.7%
Nc1ccc2nc(-c3cccnc3)[nH]c2c1	7.84%

SMILES	hERG current change (%, negative = inhibition) at 1uM
COc1nc2ccccc2nc1OC	13.8%
Cc1ccc(OC(=O)c2ccc(C)c([N+](=O)[O-])c2)cn1	14.3%
COC(=O)c1ccc(-n2cncn2)c(F)c1	7.77%
COc1ccccc1NC(=O)CN1CCOCC1	16.3%
Cc1ccc(CSCC(=O)Nc2ccc3c(c2)OCO3)cc1	-2.99%
CC(=O)c1ccc(-c2ccc(C(=O)N3CCC(C(N)=O)CC3)o2)cc1	-4.4%
CC(=O)c1csc(COc2ccc(Cl)cc2)n1	10.8%
O=C(O)c1cc(-c2ccncc2)nc2ccc(S(=O)(=O)N3CCOCC3)cc12	3.3%
O=C(COC(=O)/C=C/c1cccc(C(F)(F)F)c1)NC1CCCCCC1	3.88%
CCOc1cccc2sc(N(CCN(C)C)C(=O)/C=C/c3cccs3)nc12.Cl	16.2%
CCOCCn1cnc2sc(C(=O)NCC(=O)OCC)c(C)c2c1=O	0.214%
C=C(C)c1ccc(C(C)(C)NC(=O)NCc2ccco2)cc1	-1.72%
O=C(CN1CCN(Cc2ccccc2)CC1)N/N=C/C=C/c1ccccc1[N+](=O)[O-]	-32.1%
CCC(C)(C)C1CCc2c(sc(NC(=O)c3cccs3)c2C(N)=O)C1 (centres unmarked)	12.4%
CCOC(=O)CN1CC23C=CC(O2)C(C(=O)NC2CCCC2)C3C1=O (centres unmarked)	9.85%
CCOc1ccc(CSC2=NCCN2)cc1Cl.Cl	-4.54%
CC(C)SCC(=O)Nc1ncc2c(n1)-c1ccccc1CC2	11.5%
COc1ccc(NC(=O)C(F)(F)F)cc1OC	7.02%
Cc1c(C=O)c2ccccn2c1C(=O)c1ccncc1	6.3%
O=C(CC1SCCNC1=O)Nc1ccc(Cl)cc1 (centres unmarked)	7.11%
COc1ccc(C(=O)Cn2c(=O)oc3ccc(C)cc32)cc1	11.4%
CCc1ccc(/C=C/C(=O)c2c(C)cc(C)[nH]c2=O)cc1	5.55%
O=C(CCCCl)NC1=NN(c2ccccc2)C(=O)C1	1.49%
CC(C)NC(=O)COC(=O)c1cncc(Br)c1	7.87%

SMILES	hERG current change (%, negative = inhibition) at 1uM
CCN1CCN(c2ccc(S(=O)(=O)N3CCCCC3)cc2NC(=O)c2cccc(C)c2[N+](=O)[O-])CC1	6.56%
CC(C)NC(=O)CSc1nc(N)c(NC(=O)c2ccccc2F)c(=O)[nH]1	14.9%
O=C(CN1C(=O)CCSc2ccccc21)Nc1ccc(F)cc1	1.34%
COc1ccc(C2=CC(c3cc(OC)c(OC)c(OC)c3)NC(=S)N2)cc1 (centres unmarked)	3.88%
Cc1sc(NC(=O)C2CCCCC2C(=O)O)c(C(N)=O)c1-c1ccc(C(C)(C)C)cc1 (centres unmarked)	7.43%
CCN(CC)CCCNC(=S)N1CCN(c2nc3ccccc3n2CC)CC1	10.5%
COCc1cc(=O)n2[nH]c(-c3cccs3)cc2n1	10.8%
Cc1nnsc1C(=O)N/N=C/c1ccccc1	5.76%
O=C(O)C(=O)O.OC(CNCCc1ccc(Cl)cc1Cl)COc1ccccc1 (centres unmarked)	6.22%
Cn1nc(C(=O)NNc2c(F)c(F)cc(F)c2F)c2ccccc2c1=O	10.8%
CCOc1c2ccc(C(=O)NCCCCc3ccccc3)cc2nn1C	-0.119%
O=C(NCCCN1CCOCC1)C1(c2ccccc2)CCOCC1	19.2%
CC(=O)c1cccc(-n2nnnc2SCC(=O)NNC(=O)C2CCCCC2)c1	6.9%
COc1cccc(C2(O)CCN(C(=O)c3cccs3)CC2)c1	5.78%
Cc1nn(-c2cccc(C(F)(F)F)c2)c(=O)c2noc(C)c12	0.696%
CC(=O)Nc1ccc(NC(=O)CSc2nnc(C3CC3)n2C)cc1	10.9%
O=C(Nc1ccccc1Cl)N1CCSc2ccccc21	12.2%
Cc1cc2ccccc2n1CCNC(=O)COc1ccccc1	-3.2%
CN(CC(=O)Nc1ccc(F)c(F)c1F)C1CCCCC1	-2.93%
CCCn1c(NCc2ccccc2NS(=O)(=O)c2ccc(C)cc2)nc2ccccc21	10.5%
CCOC(=O)C1CCN(C(=O)Cn2nc(C)c3c(C)n(-c4ccccc4)nc3c2=O)CC1	10.2%
O=C(CCCCCn1nnc2ccccc2c1=O)Nc1ccccc1Cl	10.7%
Cc1noc(NS(=O)(=O)c2ccc(N/C=C\C(=O)c3cccc4ccccc34)cc2)c1C	9.45%
O=C(NCc1ccccc1)C(c1cccnc1)N(C(=O)c1ccccn1)c1ccccc1F (centres unmarked)	10.1%

SMILES	hERG current change (%, negative = inhibition) at 1uM
COc1ccc(NS(=O)(=O)c2ccc(C)c(C(=O)N(C)Cc3ccc(C)cc3)c2)cc1	11.7%
O=C1CC(c2ccccc2)CC(O)=C1C=NCCN1CCN(C(=O)Cc2ccccc2)CC1 (centres unmarked)	-19.7%
CCC(=O)c1ccc(N2CCN(C(=O)c3cccs3)CC2)c(F)c1	0.503%
COc1ccc(NC(=O)COc2cccc3c2OC(C)(C)C3)cc1OC	11.7%
COc1cc(NC(=O)C2CCN(S(=O)(=O)c3cccnc3)CC2)cc(OC)c1OC	-4.49%
Cc1[nH]c2ccccc2c1C(=O)CSCC(=O)O	5.4%
COCCOC(=O)c1c(NC(=O)CSc2cccc[n+]2[O-])sc(C(N)=O)c1C	31.6%
O=C(NCc1ccco1)c1ccc(S(=O)(=O)c2cccc(S(=O)(=O)N3CCOCC3)c2)cc1	12.7%
Cc1cc(N2CCC(C(=O)NCC3CC3)CC2)nc(-c2ccccc2)n1	-53%
COc1ccc(CNC(=O)CC23CC4CC(CC(C4)C2)C3)cc1	16.8%
CC(=O)c1cn(CCCOc2ccccc2)c2ccccc12	6.39%
CCNc1sc(C(=O)c2cccs2)c(N)c1C#N	5.91%
CCC(C)(C(=O)NC1CCCC1)N(Cc1cccs1)C(C)=O (centres unmarked)	13.9%
Cc1ccc2[nH]c(=O)c(CN(Cc3ccc4c(c3)OCO4)Cc3nnnn3Cc3ccco3)cc2c1	9.95%
CC(C)CC(=O)Nc1sc2c(c1C#N)CC(C)(C)NC2(C)C	0.254%
COc1ccc(/C=N/Nc2ccc(C(F)(F)F)cc2[N+](=O)[O-])cc1	8.12%
COc1ccc(N2CCN(CCC(N)=O)CC2)cc1	14.6%
CCOC(=O)Cc1ccc(NC(=O)c2ccc(C(C)(C)C)cc2)cc1	2.5%
CC(C)OC(=O)CN1CCN(c2ccc(Cl)cc2)CC1	6.64%
C=CCn1c(C)csc1=Nc1ccc(C(C)=O)cc1	18.3%
COc1ccc(-c2coc3cc(O)ccc3c2=O)cc1	1.37%
COC(=O)C1=C(c2cc3ccccc3o2)C[C@@H]2CC[C@H]1N2C(=O)N1CCCC1	7.5%
O=C(Cc1ccc([N+](=O)[O-])cc1)Nc1ccc(Cl)cc1	10.4%
